# Laboratory results published in PubChem BioAssay AID662 (National Center for Advancing Translational Sciences (NCATS), 2007).
# About 1,800 (2.5%) of roughly 71,000 compounds were called active. This list was built around the results that the source calls inconclusive (neither active nor inactive); the mix of calls is not that of the screen. The call rests on the fitted dose curve; in most records, active means well fitted activation curve with a large enough effect in the signal ratio, with a control signal flat (not every such curve was filed as active); inconclusive means small, poorly fitted or top-dose-only effect, or effect the other way, or a change in a side signal; inactive means flat fitted curve, though single readings scatter; the % refers to the signal ratio. Where the call is inconclusive, the potency comes from a doubtful curve fit.
# Test: Cell signaling CRE-BLA (Fsk stim); on activity change, negative = inhibition: % of control where 0% means no effect
# Conditions: CHO CRE-bla reporter (cAMP response element driving beta-lactamase), forskolin EC10, beta-lactamase ratio; activity change, negative = inhibition: at 38.2 µM (top of the series) unless noted
# Method in brief: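 Forskolin analogue NKH 477 at EC10 stimulated CRE-driven beta-lactamase in CHO cells alongside compound dilution series. Beta-lactamase was measured with CCF4, excitation 405 nm, emission ratio 460/530 nm.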
# Potency means the concentration at half of the fitted maximal effect; tags describe the fitted curve by direction and shape.
SMILES,Potency,"activity change, negative = inhibition"
CCOC(=O)C1CCN(S(=O)(=O)c2cccc(-c3cn4ccccc4n3)c2)CC1,"inconclusive: 10 µM [rising, partial curve]",–
COc1ccc(-c2ccc(-c3noc(C(C)C)n3)c(OC)n2)cc1,"inconclusive: 5.01 µM [rising, partial curve]",–
COCCCNC(CC(=O)Nc1ccc(N(C)C)cc1)C(=O)O (configuration not stated),inactive,–
O=c1ccc2c(OCCCCc3ccccc3)c3ccoc3cc2o1,"inconclusive: 15.8 µM [rising, partial curve]",–
CCOc1cc(C(=O)NCC(C)CN(C)C)cc(OCC)c1OCC (configuration not stated),–,inconclusive: -2.76%
CC(c1ccccc1)n1cc(C(=O)NCc2cccnc2)nn1 (configuration not stated),inactive,–
COc1ccc(OC)c(-n2c(N)c(C(=O)NCC3CCCO3)c3nc4ccccc4nc32)c1 (configuration not stated),"inconclusive: 7.94 µM [rising, single point]",–
COc1ccc(OC)c(NC(=O)c2[nH]c(C)c(C(C)=O)c2C)c1,"inconclusive: 10 µM [rising, single point]",–
CN(C)CN1CSC(=S)N(CN(C)C)C1,–,inactive: 5.84% [at 7.6 µM]
COCCn1c(=O)c(-c2ccc(Cl)cc2)nc2cnc(N3CCOCC3)nc21,active: 1 µM,–
CCOC(=O)c1c(NC(=O)c2ccco2)sc2c1CCCC2,"inconclusive: 10 µM [rising, single point]",–
Cc1ccc2nc(-c3cccc(NC(=O)c4ccc5c(c4)OCCO5)c3)oc2c1,–,inconclusive: -16.2%
COc1cc(C)nc(-n2nc(C)cc2OC)n1,inactive,–
c1ccc(-c2ccccc2OCCn2cncn2)cc1,"inconclusive: 3.16 µM [rising, single point]",–
COc1cc(CC(=O)Nc2ncc(C)s2)cc(OC)c1OC,–,inconclusive: 12.4%
CC[C@]1(O)C[C@H]2CN(CCc3c([nH]c4ccccc34)[C@](C(=O)OC)(c3cc4c(cc3OC)N(C)[C@@H]3[C@](O)(C(=O)OC)[C@H](OC(C)=O)[C@]5(CC)C=CCN6CC[C@]43[C@@H]65)C2)C1,active: 0.631 µM,–
Cc1ccc(S(=O)(=O)N2CCCC2C(=O)OCc2ccco2)cc1 (configuration not stated),"inconclusive: 0.316 µM [rising, full curve, poor fit]",–
CNc1ncnc2c1ncn2[C@H]1C[C@@H](OP(=O)(O)O)[C@H](COP(=O)(O)O)O1,inactive,–
C=CCn1c(O)c(C(CC)=NCc2cccnc2)c(=O)[nH]c1=O,active: 12.6 µM,–
CCc1ccccc1NC(=O)CSc1nnc(-c2ccco2)n1N,inactive,–
COc1cccc(OC)c1C(=O)N1CCN(Cc2ccc3c(c2)OCO3)CC1,inactive,–

SMILES,Potency,"activity change, negative = inhibition"
CCOC(=O)CN1C(=O)C(CC)Oc2ccc(Cl)cc21 (configuration not stated),–,inconclusive: 16.9%
Cn1cc(-c2nc3cncnc3n(C3CC3)c2=O)c2ccccc21,–,inconclusive: 12.6%
C=CCNc1oc(-c2ccc(OCC)cc2)nc1C#N,"inconclusive: 12.6 µM [rising, single point]",–
Fc1ccc(NCc2cccnc2)cc1,inactive,–
Cc1cnc2cc(Cl)ccc2c1SCC(=O)O,–,inactive: -6.08% [at 7.6 µM]
Cc1csc(N(C(=O)c2cccc(S(=O)(=O)N(C)C)c2)c2ccccc2)n1,"inconclusive: 5.01 µM [rising, partial curve]",–
COc1cc(C(=O)NCCC2=CCCCC2)cc(OC)c1OC,"inconclusive: 1.26 µM [rising, partial curve]",–
O=C(Cn1ncn2c(cc3ccccc32)c1=O)NCc1ccco1,inactive,–
CSc1oc(-c2ccccc2)nc1S(=O)(=O)c1ccc(C)cc1,"inconclusive: 0.794 µM [rising, partial curve]",–
O=C(Cc1cccs1)N1CCC(c2nc3c(nnn3Cc3ccccc3Cl)c(=O)[nH]2)CC1,"inconclusive: 25.1 µM [rising, single point]",–
CSc1nc2sc3c(c2c(=O)n1C)CCC(C)C3 (configuration not stated),–,inconclusive: 9.92%
Cc1nc2cc(-c3cccc(Cl)c3)nn2c(N2CCN(C(=O)c3ccco3)CC2)c1C,inactive,–
CCCCOc1ccc(C(=O)O)cc1,"inconclusive: 0.1 µM [falling, single point]",–
CCCC(=O)N(c1ccc(OCC)cc1)C1C=CS(=O)(=O)C1 (configuration not stated),inactive,–
O=C(c1cc2c(s1)CCCCC2)N1CCN(c2ncccn2)CC1,"inconclusive: 10 µM [rising, partial curve]",–
Cc1cc(NC(=O)c2cc3n(n2)C(C(F)(F)F)CC(c2ccco2)N3)n(-c2ccccc2)n1 (configuration not stated),–,inconclusive: 25.4%
CCOC(=O)N1CCC(NC(=O)C2CCC(Cn3c(=O)[nH]c4ccccc4c3=O)CC2)CC1 (configuration not stated),–,inconclusive: -24.1%
Cc1ccc(C2CC(C(F)(F)F)n3ncc(C(=O)NCc4ccco4)c3N2)cc1 (configuration not stated),–,inconclusive: -20.9%
O=C(O)C1=CCNCC1,–,inconclusive: -8.85%
COCCCn1c2nc3ccccc3nc2c2c(=O)n(Cc3ccc(Cl)cc3)c(C)nc21,–,inconclusive: 0.922%
COc1cc(Cn2c(-c3nonc3N)nc3ccccc32)ccc1C,"inconclusive: 3.98 µM [rising, full curve]",–

SMILES,Potency,"activity change, negative = inhibition"
COC(=O)C1CCN(C(=O)CSc2nnc(-c3ccncc3)o2)CC1,–,inconclusive: -7.64%
Cc1nc(NC(C)c2ccccc2)c2oc3ccccc3c2n1 (configuration not stated),"inconclusive: 5.01 µM [rising, full curve, poor fit]",–
COc1ccc(OC)c(S(=O)(=O)N2CCC(C(=O)N3CCc4ccccc4C3)CC2)c1,inactive,–
Cc1ccc(Cn2c3ccccc3c3cn[nH]c(=O)c32)cc1,–,inconclusive: 29.6%
CCCn1c(C)nc2c(c1=O)c1nc3ccccc3nc1n2CCc1ccccc1,"inconclusive: 12.6 µM [rising, single point]",–
CCn1c(=O)[nH]c2ccccc21,–,inconclusive: 4.27%
NC(=O)CSc1nc2c(sc3ccccc32)c(=O)n1CCCN1CCOCC1,"inconclusive: 3.98 µM [rising, single point]",–
OC1C=CSc2nc3ccccc3n21 (configuration not stated),–,inconclusive: 1.86%
COc1ccc(OC)c(NC(=O)CN2C(=O)c3ccccc3S2(=O)=O)c1,"inconclusive: 0.01 µM [rising, full curve, poor fit]",–
COc1ccc(Nc2nnc(Cc3ccccc3)c(=O)[nH]2)c(OC)c1,–,inconclusive: -10.6%
C=CCSc1nc2ccccc2c(=O)[nH]1,"inconclusive: 5.01 µM [rising, single point]",–
CCN(CC)c1nc(C#N)nc(N(CC)CC)n1,active: 10 µM,–
COc1ncc2nc(-c3cccc(C#N)c3)c(=O)n(CCC#N)c2n1,–,inconclusive: 13.3%
COCCNC(=O)Nc1ccc2c(c1)N(C)C(=O)CS2,inactive,–
Nc1ncc(Br)cc1S(=O)(=O)NCCC(=O)N1CCN(c2ncccn2)CC1,inactive,–
CCOC(=O)c1ccc(NC(=O)NCc2ccncc2)cc1,–,inconclusive: 22.9%
O=c1c2cnn(-c3ccccc3Cl)c2ncn1Cc1cccnc1,inactive,–
C=CCn1c(SCC(=O)Nc2cc(C)nn2-c2ccccc2)nnc1C1CCCCC1,–,inconclusive: 22.6%
CCCCNC(=O)c1ccc2c(c1)N(CC)C(=O)CS2,–,inconclusive: 29.1%
Cc1nn(CC(=O)NCc2ccccc2)c(=O)c2ccccc12,inactive,–
CCOC(=O)CNC(=O)CSc1nc2cccnc2n1C1CCCCC1,–,inconclusive: 17.1%

SMILES,Potency,"activity change, negative = inhibition"
COc1ccccc1CNc1ccnc(-c2cccnc2)n1,"inconclusive: 20 µM [rising, single point]",–
O=C(C1CCN(S(=O)(=O)c2cccc3cccnc23)CC1)N1CC=C(c2ccccc2)CC1,"inconclusive: 3.98 µM [falling, partial curve]",–
O=C(Cn1cnc2c(nnn2Cc2ccc(Cl)cc2)c1=O)NCC1CCCO1 (configuration not stated),"inconclusive: 10 µM [falling, partial curve, poor fit]",–
O=C(c1ccc2nc(-c3ccco3)c(-c3ccco3)nc2c1)N1CCN(c2ccccc2)CC1,–,inconclusive: 28%
CC1CCN(c2nc3c(c(=O)[nH]c(=O)n3C)n2CCCc2ccccc2)CC1,inactive,–
O=C(Nc1ccccc1C(F)(F)F)c1cc(-c2cccc(O)c2)on1,–,inconclusive: -9.17%
O=C(CSc1ncn[nH]1)c1ccco1,"inconclusive: 0.1 µM [falling, single point]",–
CCCCOn1c(C)c(C(=O)OCC)c2c3nonc3ccc21,active: 10 µM,–
CN(C)C=Nc1nonc1-c1ncn[nH]1,–,inconclusive: 17%
O=C(CCN1C(=O)C2C3C=CC(C3)C2C1=O)NCC1CCCO1 (configuration not stated),–,inconclusive: -28%
COC(=O)c1ccc(NC(=O)CN(C2CCCCC2)S(C)(=O)=O)cc1,inactive,–
Cc1c(NC(=O)c2ccc3c(c2)OCO3)c(=O)n(-c2ccccc2)n1C,"inconclusive: 0.0501 µM [rising, full curve, poor fit]",–
Cc1ccc(-c2cc3nc4c(c(=O)n3[nH]2)CCCC4)cc1,inactive,–
CC(=O)NC12CC3CC(C1)CC(C(=O)OCC(=O)c1ccc4c(c1)OCCO4)(C3)C2,"inconclusive: 3.16 µM [falling, partial curve]",–
COc1ccc(OC)c(N=c2oc3cc(O)ccc3cc2C(N)=O)c1,active: 10 µM,–
Cc1cc(S(=O)(=O)NC2CCCCC2)c(C)s1,–,inconclusive: -11.8%
Cc1nc(Nc2nc(-c3ccccc3)cc(=O)[nH]2)nc2ccccc12,"inconclusive: 12.6 µM [rising, partial curve]",–
CCn1c(=O)n(CC)c2cc(S(=O)(=O)N3CCOCC3)ccc21,inactive,–
CC(=O)O[C@]1(C)N=NC2(CCCCC2)O1,–,inconclusive: 2.55% [at 7.6 µM]
